In article PMC10726135:
The list shows a part of the results. At the low end of the ranking the order means little. Measured with an extract: partners may take part in the binding.

molecular target: T1, HNF4alpha8 (COS-7 nuclear extract) (UniProt P41235-5); assay: protein-binding microarray; conditions: COS-7 nuclear extract on double-stranded Agilent 4x180k PBM; binding buffer, salt, pH and temperature not given; high values mean tight binding; double strand, one strand shown; sequences stand for … in …GCCTAGGGAGATTAGAGTATCGGTCGA
T1 sequence: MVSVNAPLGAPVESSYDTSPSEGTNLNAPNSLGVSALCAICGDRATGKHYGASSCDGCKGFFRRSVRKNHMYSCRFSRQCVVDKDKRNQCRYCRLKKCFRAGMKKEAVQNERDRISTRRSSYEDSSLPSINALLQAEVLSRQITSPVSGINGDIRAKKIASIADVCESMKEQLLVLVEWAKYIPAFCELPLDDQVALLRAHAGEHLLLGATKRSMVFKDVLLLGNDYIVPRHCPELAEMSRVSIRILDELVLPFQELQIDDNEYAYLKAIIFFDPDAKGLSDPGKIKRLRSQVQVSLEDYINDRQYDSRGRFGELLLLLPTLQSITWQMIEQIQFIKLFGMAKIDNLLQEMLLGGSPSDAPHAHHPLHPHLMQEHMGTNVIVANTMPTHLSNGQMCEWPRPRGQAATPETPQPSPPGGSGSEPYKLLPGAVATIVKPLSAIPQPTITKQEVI

Sequence | binding signal (log2 normalized intensity)
CTCAAAGTTTTGTTATCTCTGCTTGCAATT | 0.44
GACTGGTTCTTGGTCAGCTCCTGGGAGATG | 0.413
TTCAACTGTGTGAGCTGATCACACCATATC | -0.113
GTAAAAACAACTGCCACTTATTGTGTTATG | 0.577
CCTCCTTCCGCGGACGTGTTCCCACAGTGC | 0.95
CAAGCAGAACCTTGGAGGCGGCGGCTCCGG | -1.28
GAGGGGGACTGGAAGGGAGAGATAAGAAAA | -1.32
TAGAAACAAGACAGAATGATTCTCAGAAAC | -1.35
AGCAAATCCCAATTCACTGACACAAATTAT | -1.33
GGGGAGCAAAGGTTAGCAAGGGCCCCCACT | 3.27
GACCCCCACTGCCTGCCTGCCAACTCCACG | 3.35
TCTGACCTTTGGCATTGTGTTACGTCTGGT | 4.34
GTTAAAGGAGATAATGGGTGTAAGATACCT | -1.22
GTTTGAATTCTTGCCTATCCCATAGGTGAG | -1.24
CATTACTATCTGCTGGGGGCTGGGCCCCAC | -1.38
GTGGCCACAAAATGAACACCTGTTCTAATC | -1.06
AGAGGCCAGCTAAAACTGCAGATTGACTCA | -1.32
CTCCCCTCCTCCCTTGCTCACCCCACGGTT | 3.88
TTCAGGTTTGCTAATATCTGATGTTAAATC | 0.806
GAAATAGTGAGACAGACATGCGACATGAGG | -1.19
GGAGGCTGCAGCGCCACATTCTGAGCCAGC | -1.17
GAAACAACACCAGCAATCACCTACCCCCAG | 3.67
TCACACGGGGATGGCAGACGGGGCTCTCAG | -0.671
AAAAATGGGCTGGGACTCATTTATGGAGGA | -1.13
GAGCATATGTATGTCAGAGTATGTGTGTAT | 1.92

Sequence | binding signal (log2 normalized intensity)
TCAGAAGCCACCAGTGCAAATATAAAAGGC | -1.16
AGAATTCGATTGTTTAGGAGCCAATTATGC | -0.642
AGCTTCCAGAATAGCCTCTGCAACTCAGAG | -0.966
ACAGATAAGATTTGGAAAATATTGCCAATA | -1.41
GAGGCAGGACCTTGGGAAAGGAGAAGCTGG | -1.37
TTGATATTTATCAAGATGAACTTTGACCCA | 11.2
TAATTAAGACTCAGTCGGCTGTCAAATCAC | -1.38
TTGTAGCTCTCAGCTCCTACATTACACTCC | -1.37
AGATTCCAGGGGAGGGTAAGAGTCCAACTT | 4.33
CCCGGCCAACGGTCGGAAGGGAGGTGCCAT | -1.24
CTCGGCATTCAGACAGACCCAGGGGAATAA | -0.898
GCCACCTTGGTGAGAGATTAAACATGCTCT | -1.14
TACAGTCAGAGGCCTGAAGGCCCCCAGGTA | 2.1
GTACTGGGACTGTGCAGACAAGATATGAGG | -1.3
TGCTGAAGATAAGACTTCCTCAGATAACCC | -0.357
CAAGGGATCGTCCAAATACCTAGCTGTTTG | -1.42
ACGGCTGCTGTAACAAGTGGCTATAAACTA | -1.22
AGCTGGGGTGCCTGATAATGACTCTTGAAC | 2.4
CCTTTTTGCATGAGAATCTGACCTTTGGTT | 7.1
TTAGGAATGCAACTCTAACCTTTACCTTCT | 2.93
GCCACCATTGATCTAACAGGAGGTGGAGCT | -1.49
AGTGTGACCCTGAACCTACAGCCCCTGTGG | 0.0394
TTCAATTTTTTTGTTGTTATCCATTTAAAA | 1.85
CTAAATCTGAATAGAACTCAGGAAAGATCA | -0.143
TCCTGGTGCAGGGGGCGAGCATGGCCGCTC | -1.32

Sequence | binding signal (log2 normalized intensity)
CATCCTGACCATCTGCGAAATGGGGATAAA | -1.2
CTTTAGCTCAGCGGTTACTTCGAGTACATT | 1.01
GAACCATTTGTGAGGATGGGCAGTCCCTAT | -0.279
CACCTTTTGGCTGTAGAAAGACTAAAGTTC | 2.69
GATCTCCCCACATTCCAACACAGGGTCAAT | 3.48
GCTGTGTGACTCACCTTTGCTCTGATCTTT | 3.68
CAGTTTGGCTTCTGACCTTTGGCATTGTGT | 6.55
CCAAATCCCTGCCCACATCCATTTTCTATC | 0.646
AGGTCAGAGGACTTCCAAAGCCCCTTTCCA | 0.63
GGATAAGTCTGTCTTGCTGTTTTTCCAGTT | 1.6
AAATGCCTTCAGGGGCATTTGAGTACATGC | 0.889
AGTTTCTTCACTGACGAAACTCACATACTG | -1.33
CTCCTGGTTGGGGCCTCCCTCCGTGGGGCT | -1.41
TACTATGCAATAACCAGGGAGTGGCAGCAT | -1.3
AAGTTCCACATCAAGCACATTCCAGAACCA | -1.42
GGGGGTAGGTGGAGTGAGGGAGGGGGGCTG | -1.27
AAAGCCCTAGCTGACTGCGTCAGGCAGTTG | -1.41
GGTCACGTGCCGCTGCGGGTCACGTGCCGC | 1.03
TACAGATATTCTGAGACAACACTCAGGATA | -1.26
TTTTCTCCTTTCCTCCTATGTCAATAGAGC | 0.835
AGCGATCATGGGTGACCCGTTAAGAATGAG | 1.24
GGCCGTATCAGAAGAACTGCACTGTATCTT | -0.024
CCTCAGAGATGTTTAGTGAGCTGTCTAATT | 0.3
